Test results reported in publication PMC7596085, “The pathogenic S688Y mutation in the ligand-binding domain of the GluN1 subunit regulates the properties of NMDA receptors” (Scientific Reports, 2020).
Like-named read-outs stand apart in the source and are kept apart here.

Columns and labels:
[1] = biological target: hGluN1-4a/hGluN2A (UniProt P35439+Q12879, I267L/M415L/N159S/R212K)
[2] = biological target: hGluN1-4a-S688Y/hGluN2A (UniProt P35439+Q12879, I267L/M415L/N159S/R212K/S688Y)
[3] = biological target: hGluN1-4a/hGluN2B (UniProt P35439+Q13224, I267L/M415L/N159S/R212K)
[4] = biological target: hGluN1-4a-S688Y/hGluN2B (UniProt P35439+Q13224, I267L/M415L/N159S/R212K/S688Y)

Structure (SMILES) | EC50 [1] [µM] | Hill coefficient (h) [1] | EC50 [2] [µM] | Hill coefficient (h) [2] | EC50 [3] [µM] | Hill coefficient (h) [3] | EC50 [4] [µM] | Hill coefficient (h) [4] | Hill coefficient (h) ([3]; steady-state concentration-response for glutamate, HEK293, in the presence of 100 µM glycine)
N[C@H](CO)C(=O)O [D-serine] | 1.77 ± 0.19 | 1.37 ± 0.03 | 1070 ± 29.7 | 1.48 ± 0.02 | 0.47 ± 0.02 | 1.20 ± 0.03 | 152 ± 9.67 | 1.19 ± 0.03 | 
N[C@@H](CCC(=O)O)C(=O)O [glutamate] |  |  |  |  |  |  |  |  | 1.33 ± 0.03
